Consider 55 compounds from paper PMC4336329 (PLoS ONE, 2015).

Out of some 310,000 compounds screened, about 2,200 (0.71%) showed an effect of 50% or more. The effect is printed as a negative number. Some of the results follow.

The target of this assay is human ether-à-go-go-related gene (hERG) potassium channel (human, UniProt Q12809). Kind of assay: primary screen, population patch clamp on CHO cells stably expressing hERG.
Sequence of human ether-à-go-go-related gene (hERG) potassium channel (Q12809 whole entry, looked up): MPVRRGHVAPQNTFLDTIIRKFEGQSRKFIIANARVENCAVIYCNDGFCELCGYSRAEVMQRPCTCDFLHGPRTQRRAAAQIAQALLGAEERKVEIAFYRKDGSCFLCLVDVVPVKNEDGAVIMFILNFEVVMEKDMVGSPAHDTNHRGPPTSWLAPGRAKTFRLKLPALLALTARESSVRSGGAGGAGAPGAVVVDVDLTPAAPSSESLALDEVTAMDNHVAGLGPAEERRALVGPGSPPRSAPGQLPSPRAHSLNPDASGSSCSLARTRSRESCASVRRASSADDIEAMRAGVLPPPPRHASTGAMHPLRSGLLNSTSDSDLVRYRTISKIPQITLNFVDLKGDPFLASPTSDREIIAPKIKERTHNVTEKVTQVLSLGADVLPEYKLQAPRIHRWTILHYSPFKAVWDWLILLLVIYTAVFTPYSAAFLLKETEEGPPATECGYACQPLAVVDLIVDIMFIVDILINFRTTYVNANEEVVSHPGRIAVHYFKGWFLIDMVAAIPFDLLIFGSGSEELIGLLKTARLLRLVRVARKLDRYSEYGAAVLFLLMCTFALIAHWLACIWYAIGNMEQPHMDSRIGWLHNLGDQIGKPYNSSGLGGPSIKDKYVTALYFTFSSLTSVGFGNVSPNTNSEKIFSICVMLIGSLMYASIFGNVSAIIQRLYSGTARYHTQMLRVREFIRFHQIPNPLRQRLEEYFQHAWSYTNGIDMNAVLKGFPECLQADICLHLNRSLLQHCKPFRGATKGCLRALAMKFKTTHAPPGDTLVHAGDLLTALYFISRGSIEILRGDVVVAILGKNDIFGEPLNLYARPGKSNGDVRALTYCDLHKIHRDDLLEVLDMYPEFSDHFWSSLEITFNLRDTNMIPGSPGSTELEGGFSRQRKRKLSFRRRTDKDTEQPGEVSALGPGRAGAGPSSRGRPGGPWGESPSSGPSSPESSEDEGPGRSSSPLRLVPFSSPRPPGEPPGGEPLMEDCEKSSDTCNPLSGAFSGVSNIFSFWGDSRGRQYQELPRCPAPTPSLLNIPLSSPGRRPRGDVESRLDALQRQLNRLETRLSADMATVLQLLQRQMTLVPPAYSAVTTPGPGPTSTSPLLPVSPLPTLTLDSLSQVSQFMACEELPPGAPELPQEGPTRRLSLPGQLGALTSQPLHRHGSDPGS
Regarding `CCOC(=O)N1CCC(N2C(=O)c3ccccc3C2Nc2cc(OC)c(OC)c(OC)c2)CC1` (stereo not shown), the “hERG current change (%, negative = inhibition) at 1uM” value is given as -0.303%.

As to `Nc1c(Cl)cc(-c2cn(CCC(=O)O)c(-c3ccc(Cl)nc3)n2)cc1Cl`, the “hERG current change (%, negative = inhibition) at 1uM” value amounted to 22.2%.

For `O=C(NCC(=O)N(c1cccc(F)c1)C(C(=O)NC1CCCC1)c1cccnc1)c1ccco1` (stereo not shown), the “hERG current change (%, negative = inhibition) at 1uM” value is reported as -2.11%.

On to `COc1ccc(-c2c(NC(=O)c3ccco3)n(C)c3ccccc3c2=O)cc1`, for which the “hERG current change (%, negative = inhibition) at 1uM” value is -1.74%.

For the compound `CCOCc1c(C(=O)NCc2ccccc2CN2CCCC2)oc2ccccc12`, the “hERG current change (%, negative = inhibition) at 1uM” value was -60.1%.

Take `CC(Sc1ncn[nH]1)C(=O)NCc1ccccc1` (stereo not shown): the “hERG current change (%, negative = inhibition) at 1uM” value was 10.8%.

On to `O=C(c1ccc2c(=O)n3c(nc2c1)CCCCC3)N1CCN(c2ccc(Cl)cc2)CC1`, for which the “hERG current change (%, negative = inhibition) at 1uM” value was -5.12%.

Consider `COc1ccc2oc(-c3ccccc3)c(C(=O)O)c2c1`, for which the “hERG current change (%, negative = inhibition) at 1uM” value was 21.1%.

For the compound `O=C(NCc1cccnc1)C1CCN(S(=O)(=O)c2cccs2)CC1`, the “hERG current change (%, negative = inhibition) at 1uM” value is listed as -10.7%.

`Cc1ccc(NC2CCCN(C(=O)c3ccccn3)C2)cc1C` (stereo not shown): the “hERG current change (%, negative = inhibition) at 1uM” value was determined as 15.7%.

For `COc1ccc(CC(=O)Nc2c3c(nn2-c2cccc(C)c2C)CS(=O)C3)cc1OC` (stereo not shown), the “hERG current change (%, negative = inhibition) at 1uM” value was found to be 16.2%.

For the compound `Cn1cnnc1SCc1ccc(C(=O)N=Nc2c(O)n(C)c3ccccc23)cc1`, the “hERG current change (%, negative = inhibition) at 1uM” value was found to be 3.71%.

As to `CC1(C)Cc2c(sc(N)c2C#N)C(C)(C)N1`, the “hERG current change (%, negative = inhibition) at 1uM” value was found to be 3.35%.

As for `CC(=O)Nc1ccc(OS(=O)(=O)c2ccc([N+](=O)[O-])cc2)cc1`, the “hERG current change (%, negative = inhibition) at 1uM” value is 7.12%.

For `COc1cc(/C=N/n2cnnc2)ccc1OC(=O)c1ccncc1`, the “hERG current change (%, negative = inhibition) at 1uM” value came to 12.2%.

Consider `CN(C)S(=O)(=O)c1cccc(NC(=S)NC2CCCCC2)c1`, for which the “hERG current change (%, negative = inhibition) at 1uM” value is 11.4%.

Take `Cc1ccc([N+](=O)[O-])cc1NC(=O)c1cccs1`: the “hERG current change (%, negative = inhibition) at 1uM” value came to 21.3%.

Turning to `CCOC(=O)c1c(C)c(C(=O)NCc2ccco2)c(C)n1C`, the “hERG current change (%, negative = inhibition) at 1uM” value is 2.92%.

For the compound `CN1CCc2nc(NC(=O)COc3ccc(C#N)cc3)sc2C1`, the “hERG current change (%, negative = inhibition) at 1uM” value turned out to be 0.738%.

As for `O=C(Cn1c(CO)nc2ccccc21)NCc1ccc2c(c1)OCO2`, the “hERG current change (%, negative = inhibition) at 1uM” value is given as 2.96%.

`Oc1c(Br)cc(Br)cc1Br`: the “hERG current change (%, negative = inhibition) at 1uM” value worked out at 10.5%.

As for `Cn1cnc(S(=O)(=O)N2CCN(c3ccc(F)cc3)CC2)c1`, the “hERG current change (%, negative = inhibition) at 1uM” value is reported as 3.15%.

With `CCCCNC(=O)c1sc2ncnc(N3CCc4ccccc4C3)c2c1C`, the “hERG current change (%, negative = inhibition) at 1uM” value is on record as -29.2%.

Consider `O=C(CCC1CC(=O)Nc2ccccc21)NCc1cccnc1` (stereo not shown), for which the “hERG current change (%, negative = inhibition) at 1uM” value worked out at 8.67%.

For `CCCCNC(=O)COC(=O)c1c2c(nc3ccccc13)/C(=C/c1cccs1)CC2`, the “hERG current change (%, negative = inhibition) at 1uM” value is on record as 0.752%.

Take `CC(=O)N[C@@H](CC(=O)N[C@H](CCC(=O)O)C(=O)O)C(=O)O`: the “hERG current change (%, negative = inhibition) at 1uM” value came to 3.48%.

With `Cc1cccc(NC(=O)C23CCC(C)(C(=O)O2)C3(C)C)c1` (stereo not shown), the “hERG current change (%, negative = inhibition) at 1uM” value came to 14.8%.

Turning to `O=C(O)CCC(NS(=O)(=O)c1ccc(N2CCCC2=O)cc1)C(=O)O` (stereo not shown), the “hERG current change (%, negative = inhibition) at 1uM” value was 1.6%.

As to `C[C@@]12C(=O)N(Cc3ccc(-c4ccccc4)cc3)CC(=O)N1[C@H](/C=C/c1ccccc1)[C@@H]1C(=O)N(c3ccccc3)C(=O)[C@@H]12`, the “hERG current change (%, negative = inhibition) at 1uM” value is 4.62%.

For the compound `O=C(CNC(=O)c1ccccc1O)N/N=C/c1cc(Br)ccc1OC(=O)/C=C/c1ccco1`, the “hERG current change (%, negative = inhibition) at 1uM” value stood at 7.4%.

Consider `COc1cccc(NC(=O)Cn2c(=O)n(-c3ccccc3)c(=O)c3oc4ccccc4c32)c1`, for which the “hERG current change (%, negative = inhibition) at 1uM” value amounted to 10.6%.

For `Cc1nnc2c3ccccc3c(-c3cccs3)nn12`, the “hERG current change (%, negative = inhibition) at 1uM” value amounted to 13.6%.

Take `CC(Sc1nnnn1C)C(=O)Nc1ccccc1-c1ccccc1` (stereo not shown): the “hERG current change (%, negative = inhibition) at 1uM” value is recorded as 19.8%.

For `Cc1cccc(-c2nnc(SC(C)C(=O)N3CCOCC3)o2)c1` (stereo not shown), the “hERG current change (%, negative = inhibition) at 1uM” value came to 13.1%.

Regarding `O=C(Oc1coc(CSc2nnc(NC(=O)c3cccs3)s2)cc1=O)c1ccccc1`, the “hERG current change (%, negative = inhibition) at 1uM” value is 14.4%.

`O=C(CN1c2ccccc2S(=O)(=O)c2ccccc21)NCc1ccc(F)cc1`: the “hERG current change (%, negative = inhibition) at 1uM” value came out at 1.88%.

Consider `NS(=O)(=O)c1ccc(S(=O)(=O)N(CCc2ccccc2)Cc2ccccn2)cc1`, for which the “hERG current change (%, negative = inhibition) at 1uM” value came to 11%.

In the case of `COc1ccc(NC(=O)CSCC(=O)N(C)Cc2ccc(Cl)c(Cl)c2)cc1`, the “hERG current change (%, negative = inhibition) at 1uM” value is on record as 11.7%.

On to `Nc1cc(=O)[nH]c(SCc2csc(-c3ccccc3)n2)n1`, for which the “hERG current change (%, negative = inhibition) at 1uM” value is reported as 3.84%.

`CC(C)(C)c1ccc(OCc2ccc(C(=O)N/N=C3\CC4CC=CC34)cc2)cc1` (stereo not shown): the “hERG current change (%, negative = inhibition) at 1uM” value amounted to 5.55%.

Turning to `Cc1nc2nc(SCc3nc4ccccc4[nH]3)[nH]c2cc1Br`, the “hERG current change (%, negative = inhibition) at 1uM” value was found to be 10%.

As to `COC(=O)C1=C(c2ccc(C(C)=O)cc2)C[C@@H]2CC[C@H]1N2C(=O)NC(C)C`, the “hERG current change (%, negative = inhibition) at 1uM” value worked out at 14.9%.

As for `COc1cc(S(=O)(=O)N2CCOCC2)c(OC)c(S(=O)(=O)N2CCOCC2)c1`, the “hERG current change (%, negative = inhibition) at 1uM” value is recorded as 13.1%.

Take `CN1C(C)(C)c2ccccc2OS1(=O)=O`: the “hERG current change (%, negative = inhibition) at 1uM” value turned out to be 0.0609%.

Turning to `O=C(NC1=NCCS1)c1cc2ccccc2o1`, the “hERG current change (%, negative = inhibition) at 1uM” value is listed as -20.6%.

Consider `Cc1ccc(N/N=C(\C#N)C(=O)c2ccsc2)cc1`, for which the “hERG current change (%, negative = inhibition) at 1uM” value was determined as 5.25%.

In the case of `CC(=O)Nc1ccc(C(=O)COC(=O)CCN2C(=O)C3CC=CCC3C2=O)cc1` (stereo not shown), the “hERG current change (%, negative = inhibition) at 1uM” value is reported as 15.4%.

In the case of `CC(=O)N(c1ccc(C(C)C)cc1)C1C=CS(=O)(=O)C1` (stereo not shown), the “hERG current change (%, negative = inhibition) at 1uM” value was determined as 8.44%.

Regarding `Cc1ccccc1NC(=O)c1[nH]cnc1C(=O)NN`, the “hERG current change (%, negative = inhibition) at 1uM” value is given as 9.06%.

In the case of `CCCC(=O)Nc1ccc(C(=O)Nc2nc(CC(=O)OCC)cs2)cc1`, the “hERG current change (%, negative = inhibition) at 1uM” value came to 10.8%.

Regarding `O=C(c1cc[n+]([O-])cc1)N1CCCC(N2CCN(c3cccc(C(F)(F)F)c3)CC2)C1` (stereo not shown), the “hERG current change (%, negative = inhibition) at 1uM” value amounted to 9.33%.

As for `Cc1cc(S(=O)(=O)N(Cc2ccccn2)Cc2ccco2)ccc1-n1cnnn1`, the “hERG current change (%, negative = inhibition) at 1uM” value stood at 2.5%.

On to `COc1ccc(C)cc1NC(=O)CN1CCN(S(=O)(=O)c2ccc(Br)cc2)CC1`, for which the “hERG current change (%, negative = inhibition) at 1uM” value is listed as 5.24%.

As to `CC1CC(C)CN(c2ncnc3c2cnn3Cc2ccc(Cl)cc2)C1` (stereo not shown), the “hERG current change (%, negative = inhibition) at 1uM” value is recorded as -4.81%.

Regarding `C=CCC(O)(CC=C)CNC(=O)c1ccc(OC)c(OC2CCN(C(C)=O)CC2)c1`, the “hERG current change (%, negative = inhibition) at 1uM” value came out at 14.7%.
